Data on 22 molecules can be found in paper PMC12136788.

Some of the results follow.

T1: UNK ZnF1-3 (human, UniProt Q9C0B0 31-174)
T1 sequence: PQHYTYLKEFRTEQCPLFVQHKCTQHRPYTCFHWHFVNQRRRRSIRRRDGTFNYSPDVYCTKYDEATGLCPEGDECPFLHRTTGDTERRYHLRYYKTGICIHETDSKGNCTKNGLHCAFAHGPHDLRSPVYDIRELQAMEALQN

B1: chr8:94190273:94190274:+_ENSMUSG00000055932_ENSMUST00000069718|mus_mus|FALSE|FALSE (ssRNA)
RNA: GGGAGUUCUACAGUCCGACGAUCGGAUCUUGCUUCCAGCAGCUGGCCUCUGAGCUCGGAAACCACGUCUGUGAGGUCAAAGGGCAGAGGCAUGGAAGGGUCAUCCUUCUCCCAAUAUGGCCGGCAGUCUGGUUUCUGCUGUACCAACAGAGGAUUGAGCAUCA
B2: chrX:71549762:71549763:+_ENSMUSG00000019087_ENSMUST00000019231|mus_mus|mus_mus_mus_hu_False|78_108 (ssRNA)
RNA: GGGAGUUCUACAGUCCGACGAUCAAAGUGUACCACUUCUUAUUGUUAGCACAACAUUCCCCCCCAACGAUAACGACAGCCAAGCAGGACAGACAGUUAAGUAGUACUUCCACACUCCCAAACUCAGGGAGCCCUAUAACCUUACAACAGAGGAUUGAGCAUCA
B3: chr16:94690093:94690094:+_ENSMUSG00000040785_ENSMUST00000117648|mus_hu|mus_mus_mus_hu_True|48_58 (ssRNA)
RNA: GGGAGUUCUACAGUCCGACGAUCGGGCUGGGAUGACGGACACACAGCCUCGAUUCCAGGGGGAAAAAGUCUUAGUCAAUACUAAUUUAAAAAGUAUAAUGAUUUUUGAAAAUCAGAUUACAUCUAUAAAAGAUGAAAAGCAAACAACAGAGGAUUGAGCAUCA
B4: chr4:73765705:73765706:+_ENSMUSG00000049122_ENSMUST00000084474|mus_mus|motif|central (ssRNA)
RNA: GGGAGUUCUACAGUCCGACGAUCGUACCUUGUGAGCUCUUCUUUAAUCUUCAAGGGUUCAUGUGGGUAGAAUUUCACUCGGAAGCACAUGGUGUAUGGUGGAUGAGAUUUCAUUUGCUUGAAGAUGGACUUGUUAGGCUCAAGCAACAGAGGAUUGAGCAUCA
B5: 125897355_125903701_618_CDS_ENSMUSG00000030982_ENSMUST00000106553|mouse|control|control (ssRNA)
RNA: GGGAGUUCUACAGUCCGACGAUCACUCGUGUCUGACAGCAGCUUUGAACACUGGAUGACGAUCUUCAGAGCCUUCACCUUCUGGUCCGAGGCCCAGGCAUCCUUCAGAGACUGGUUGAGCUCCUCUAUGCGGUUCACAUAAUCCAACAGAGGAUUGAGCAUCA
B6: 127909868_127909988_3041_3pUTR_ENSG00000119414_ENST00000373547|human|control|control (ssRNA)
RNA: GGGAGUUCUACAGUCCGACGAUCAUAAGGAAUGGAGAGAAUAUUAUUGGCACGUGCCCAACUAGUGACAAACAAAUGCAGUACACAAUGACUUAAAAAUAAAAGUCACAUUAUAGGGAUAACAAAAACAACUACAUCAAUCUACAACAGAGGAUUGAGCAUCA
B7: chr19:16212804:16212805:+_ENSG00000167460_ENST00000300933|hu_mus|hu_hu_hu_mus_False|8_58 (ssRNA)
RNA: GGGAGUUCUACAGUCCGACGAUCAACAAUUCUGGAGUGAAGGAAAGAUGUAACAUGGAACAGCAUUAAAGCUCAGUAUUACUAUAUAUGGGCAACAAUGAUCACCCCAGCAUUCUCGCUUGGAAUGUGCUUGAGAAAUCUGUUCAACAGAGGAUUGAGCAUCA
B8: chrX:140292434:140292435:-_ENSMUSG00000031285_ENSMUST00000033642|mus_mus|motif|central (ssRNA)
RNA: GGGAGUUCUACAGUCCGACGAUCAAAGACCUAAACAUUCAUGAGCUGUAAGGACAGUGCUUGAAAAGAUCUACUGAGACGGAAACAGGAAAAAAAAAAAGAAAGGGUCAGAAUCAGGUUGUUUUCUACCAACCUACUUGUGACCAACAGAGGAUUGAGCAUCA
B9: chr2:210598762:210598763:+_ENSG00000078018_ENST00000392194|hu_hu|motif|central (ssRNA)
RNA: GGGAGUUCUACAGUCCGACGAUCCAAAACAAUCACUAUACAGCAACAAAUACAUUUGCAAAUUUGAUUGAAAAACAUGAACGGACGGCAACCAGCCAUUGAAGAAAUGCCUUUCUAUGGUAACAGGCUCUAGAAUUAUCAGAACAACAGAGGAUUGAGCAUCA
B10: chr7:65705475:65705476:+_ENSG00000169902_ENST00000304842|hu_mus|motif|central (ssRNA)
RNA: GGGAGUUCUACAGUCCGACGAUCUCUAUUCGGUGAUGGCACUCCAUGGCAUGCUGGCCCAGGUAAAACACGGUCACAGAACGGAUCACCAGACACGCCAAGAGUAAGUUCUGCUUCAGCUUCCCAACCAUCUUGAUGUGGUUACAACAGAGGAUUGAGCAUCA
B11: chr19:16212804:16212805:+_ENSG00000167460_ENST00000300933|hu_mus|hu_hu_hu_mus_False|38_58 (ssRNA)
RNA: GGGAGUUCUACAGUCCGACGAUCAACAAUUCUGGAGUGAAGGAAAGAUGUAACAUGGAACAGCAUUAAAGCUCAGUAUUACUAUAUAUGGGCAACAAUGACUAUUUCAGCAUUCUCGCUUGGAAUGCUUAAAGACAAUCUGUUCAACAGAGGAUUGAGCAUCA
B12: chr11:4127340:4127341:+_ENSG00000167325_ENST00000300738|hu_mus|hu_hu_hu_mus_False|78_78 (ssRNA)
RNA: GGGAGUUCUACAGUCCGACGAUCGGCAUAGUCAGGGUGCUUCGUGGUCAAGGUCGCAGCUGUUUCAGCAGCCAGGGUGUCCAGUUCCACUGUGGUGACCCCACUAUAUAGGCCUUGGAUUACUUUCAUGGUGAUCUGAGCAGGCAACAGAGGAUUGAGCAUCA
B13: chr7:97836282:97836283:+_ENSG00000164715_ENST00000297293|hu_mus|FALSE|FALSE (ssRNA)
RNA: GGGAGUUCUACAGUCCGACGAUCAAAGCGAGGUCUCCCUCUGUGUUAGGGACAGCAGACUCCUCCGAUGAUGUACUGAAGCUACGCUGAAGAUGUGAAAUCCCUUUCAGAACAAGAGGAGAGCUGGGUGCUUGGUACAGGAAACAACAGAGGAUUGAGCAUCA
B14: chr4:40680873:40680874:+_ENSMUSG00000028410_ENSMUST00000030118|mus_hu|FALSE|FALSE (ssRNA)
RNA: GGGAGUUCUACAGUCCGACGAUCCUGAUACCCAGAUUUAAGCAUGUGAACAUAUGAGACUUUUAAACAUACAAUUAAAGCUAUUCAUCAUAAUUUGCUAUACUACCAACAUAACUUUGGAGCGAAAGUCAAAUGGUUUAAAGUCAACAGAGGAUUGAGCAUCA
B15: 38865426_38868500_1348_CDS_ENSG00000157540_ENST00000338785|human|control|control (ssRNA)
RNA: GGGAGUUCUACAGUCCGACGAUCCUUUCUUGCUUUUGGUGCUUGGUCAAGAAUAUGAGCAGGUGGAAUACCCAGAACUUCCACUAUUUUAUUCAUCUGAUCUACCUCAUUGGCACCACUGAACAGAGGUUCUCCAGUGUGCAUCAACAGAGGAUUGAGCAUCA
B16: chr14:31337589:31337590:+_ENSMUSG00000021962_ENSMUST00000022535|mus_hu|FALSE|FALSE (ssRNA)
RNA: GGGAGUUCUACAGUCCGACGAUCAAAUGACCUGUAUCAUAGAAACGAAGACACUUUCAUUCAAAGAAUAUCUUAAAAUUACUAUUGCUGAAAUAAAUCAAAAUCUACAUUAAAAUAUUACUAAACACCAUUACAUGCCAUAAACAACAGAGGAUUGAGCAUCA
B17: chr14:65392728:65392729:+_ENSG00000258289_ENST00000359118|hu_mus|FALSE|FALSE (ssRNA)
RNA: GGGAGUUCUACAGUCCGACGAUCAUACUCGUGUCUGGCUACUACAUGAUGACAGUUCUUACACAGAUGGUCAUAGGUAACUAUUUCUUCUCCAUCUUCCUCUUUCAGGGAUCUGUUUGUGAUCAGCAUAAAGUCCCGCUUACUCAACAGAGGAUUGAGCAUCA
B18: chr12:39763582:39763583:-_ENSG00000139116_ENST00000544797|hu_mus|hu_hu_hu_mus_False|18_88 (ssRNA)
RNA: GGGAGUUCUACAGUCCGACGAUCCUCUAGGAACUGGGCAUUCACUUUAAAAUCUGGAGGGGGCAGCCCGUUUUUAAUCGCUGAGGUCUUUUUCUCAUCAAUACUCUUGAACAGGUGUUUAACAGCUCGAGAGAUGAUGCCCUGCAACAGAGGAUUGAGCAUCA
B19: chr16:45382771:45382772:-_ENSMUSG00000022661_ENSMUST00000163230|mus_mus|mus_mus_mus_hu_True|8_58 (ssRNA)
RNA: GGGAGUUCUACAGUCCGACGAUCCUGGGUCAUGUUAUAAGACAAAUGGACAGGGAGGGCAUGCUUCUCAAAAAAUGUGAACUACUCUCUAAGACUAACAAUAUUUAUCUAGCUAUAAAAAUAAGUUUUAAAUGGACGUUAAGACAACAGAGGAUUGAGCAUCA
B20: chr11:16760304:16760305:+_ENSG00000110696_ENST00000422258|hu_hu|FALSE|FALSE (ssRNA)
RNA: GGGAGUUCUACAGUCCGACGAUCCACCCCAUGCGGGUGAGACUCUCUGGCAGCACUCAUCCUUGCGGGGAUCCCGACGAAAAAUGCCGAACCCUCUCGCCGCUCUUCCCAGCCGCAAAACCAGCAGCUUACAAUCCGCCAAGGCAACAGAGGAUUGAGCAUCA
B21: chr11:46405157:46405158:+_ENSG00000110492_ENST00000395566|hu_hu|hu_hu_hu_mus_False|18_18 (ssRNA)
RNA: GGGAGUUCUACAGUCCGACGAUCCCCUCCCCACUUUGGGCACUUGGUGUGGGCGUGAGAGGACAGGCGUGAUUGACAGAGCUGACAGGAAGACAAAAGGCACUGGUGGGUUAUAUCUCGGGCCUGGGGGAGAGGAGGGCUCCGCAACAGAGGAUUGAGCAUCA
B22: chr1:109605286:109605287:-_ENSG00000197780_ENST00000461096|hu_mus|hu_hu_hu_mus_True|68_68 (ssRNA)
RNA: GGGAGUUCUACAGUCCGACGAUCAAGUUUCAGAGUAACAUUCAGUAACCUCUUUAAAUGCAAUUAUCCUUACUUUAAGCUAAGCAGAAUAAUAAUUUAAUACCGUAAGUGAACUACACACAAAGCCUGAACCGCGAAAAUGGUCAACAGAGGAUUGAGCAUCA

The target of this experiment is T1, UNK ZnF1-3. The experiment is described as follows: nsRBNS (natural sequence RNA bind-n-seq); RBNS binding buffer (assumed for nsRBNS): 25 mM Tris pH 7.5, 150 mM KCl, 3 mM MgCl2, 0.01% Triton X-100, 500 ug/ml BSA, 20 U/ml SUPERase-In, 4 C; UNK is unkempt and MSI1 is Musashi-1; names of the RNAs are library labels; protein concentration not given here; high values mean tight binding.
On to B1, for which the binding signal amounted to 0.615 enrichment R.

With B2, the binding signal was 1.69 enrichment R.

In the case of B3, the binding signal was found to be 0.861 enrichment R.

Turning to B4, the binding signal was determined as 0.743 enrichment R.

Regarding B5, the binding signal came to 0.9 enrichment R.

In turn, B6 gave a binding signal of 1.13 enrichment R.

Regarding B7, the binding signal came to 1.32 enrichment R.

Turning to B8, the binding signal was found to be 1.45 enrichment R.

B9 gave a binding signal of 1.53 enrichment R.

In turn, B10 gave a binding signal of 0.537 enrichment R.

B11 came in with a binding signal of 0.924 enrichment R.

B12: the binding signal came out at 1.03 enrichment R.

B13 displayed a binding signal of 1.46 enrichment R.

Turning to B14, the binding signal came out at 1.08 enrichment R.

As for B15, the binding signal came out at 0.842 enrichment R.

For the molecule B16, the binding signal was 1.15 enrichment R.

B17 came in with a binding signal of 0.682 enrichment R.

As for B18, the binding signal was 1.89 enrichment R.

B19 registered a binding signal of 2.47 enrichment R.

B20 came in with a binding signal of 1.17 enrichment R.

B21 gave a binding signal of 2.59 enrichment R.

Take B22: the binding signal came out at 0.754 enrichment R.
